In the RNAGym collection of RNA variant scans (doi:10.1073/pnas.2313332121):
Variants at the background level are over-represented here.

B1: TPR 5TU (parent)
chain: GGAUCUUCUCGAUCUAACAAAAAAGACAAAUCUGCCACAAAGCUUGAGAGCAUCUUCGGAUGCAGAGGCGGCAGCCUUCGGUGGCGCGAUAGCGCCAACGUUCUCAACUAUGACACGCAAAACGCGUGCUCCGUUGAAUGGAGUUUAUCAUG

Variants of: B1
Test: polymerase ribozyme fitness, log enrichment relative to wild type (log ratio); higher = more active; in vitro selection for triplet polymerase activity
Procedure, shortened: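 Frozen incubation at −7 °C formed the core of a single, triplicate in vitro selection round applied to PCR-built, transcribed mutant libraries of each subunit of a heterodimeric triplet polymerase ribozyme. Extended constructs were gel-excised, captured with streptavidin beads and amplified by RT-PCR, and input and output libraries were Illumina-sequenced with a filter of ≥10 input reads and ≥1 read per output. Fitness is the logarithm of genotype enrichment relative to wild-type enrichment, with inverse-variance-weighted replicate averaging, and the logarithm is base 2.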

Going from C35U G94U to C35U U146C, the “polymerase ribozyme fitness (log ratio)” value rises from -0.729 to 0.279.

A37C A41U G48U A73U C93G C99U G140A and C36A A39C G50A C57U C87U A89C C103A A106U C108U U148G cannot be ordered by “polymerase ribozyme fitness (log ratio)” value: ≤ -4.2 for the first, ≤ -4.2 for the second.

C36G G42C and C36A C72G G92A C129A A137U cannot be ordered by “polymerase ribozyme fitness (log ratio)” value: ≤ -4.2 for the first, ≤ -4.2 for the second.

C35U C36G G70C U82A G83A C85U U90G C93A U135C and A37C A49C G124A U130G cannot be ordered by “polymerase ribozyme fitness (log ratio)” value: ≤ -4.2 for the first, ≤ -4.2 for the second.

Going from C35G to C35U, the “polymerase ribozyme fitness (log ratio)” value rises from -3.25 to -0.0953.

C36G A47U A91G and C36G U78A C85A cannot be ordered by “polymerase ribozyme fitness (log ratio)” value: ≤ -4.2 for the first, ≤ -4.2 for the second.

C36A A97U U101C U139A and C36U U56C C79A A91C C108A cannot be ordered by “polymerase ribozyme fitness (log ratio)” value: ≤ -4.2 for the first, ≤ -4.2 for the second.

C35U A60C C69U C93A A98U C103G G126U G143C U144C and C35U G86A A97U C116U C132G cannot be ordered by “polymerase ribozyme fitness (log ratio)” value: ≤ -4.2 for the first, ≤ -4.2 for the second.

C36A G133C U144G and C35G U45G G80U C85U A97U A107G cannot be ordered by “polymerase ribozyme fitness (log ratio)” value: ≤ -4.2 for the first, ≤ -4.2 for the second.

Going from C36U C87U to A37C C87G G88C A89U C125G U144C U151G, the “polymerase ribozyme fitness (log ratio)” value falls from -1.6 to ≤ -4.2.

Going from A37C C69G G70A C116A to C36G U56A C79U, the “polymerase ribozyme fitness (log ratio)” value falls from -3.56 to ≤ -4.2.

C35U G81U G83C G143U U146C A150G and C35U G70A C76A C105A C129A G136U cannot be ordered by “polymerase ribozyme fitness (log ratio)” value: ≤ -4.2 for the first, ≤ -4.2 for the second.

C36U A37U A73G A91U C149U G152U and C36A U77G G81C G92U A115U G136C cannot be ordered by “polymerase ribozyme fitness (log ratio)” value: ≤ -4.2 for the first, ≤ -4.2 for the second.

C35G A39U C72U G86A C114A and C36A C57A G92A C131A cannot be ordered by “polymerase ribozyme fitness (log ratio)” value: ≤ -4.2 for the first, ≤ -4.2 for the second.

A37C C57A C87G A115G C116A and C36U C57A C79U cannot be ordered by “polymerase ribozyme fitness (log ratio)” value: ≤ -4.2 for the first, ≤ -4.2 for the second.

Compared with C35U G59C, C36G A49C G58A G70C U82G A98U U104A A106G is lower in “polymerase ribozyme fitness (log ratio)” value: 0.0057 for the first, ≤ -4.2 for the second.

C35U A60G C95U A115U U144G and C35G U53A G68U C75A C96U C108A cannot be ordered by “polymerase ribozyme fitness (log ratio)” value: ≤ -4.2 for the first, ≤ -4.2 for the second.

C35U C79U G86A and C35U A47G U82A U101C C114U A115G cannot be ordered by “polymerase ribozyme fitness (log ratio)” value: ≤ -4.2 for the first, ≤ -4.2 for the second.

C36U U55A A66G C96G and C35G G58A G100A G126A cannot be ordered by “polymerase ribozyme fitness (log ratio)” value: ≤ -4.2 for the first, ≤ -4.2 for the second.

C35U U53A U55A C57G G70A G84A C93A and C35U C69G U77A U111C G143U cannot be ordered by “polymerase ribozyme fitness (log ratio)” value: ≤ -4.2 for the first, ≤ -4.2 for the second.

Going from C35G C75A C76A G80A C123U to C35U C54G C85A, the “polymerase ribozyme fitness (log ratio)” value rises from ≤ -4.2 to -3.81.

Going from C35U C93G to C35U C57U C63U A73C C93U C99U, the “polymerase ribozyme fitness (log ratio)” value falls from -3.19 to ≤ -4.2.

Compared with C36A A47G A66G C85A G94U A138U, C35U C125A U134C is higher in “polymerase ribozyme fitness (log ratio)” value: ≤ -4.2 for the first, -0.129 for the second.

C35U A52C C54G C76G C85U G140C and C36A C72U U148C cannot be ordered by “polymerase ribozyme fitness (log ratio)” value: ≤ -4.2 for the first, ≤ -4.2 for the second.

C35U A49G U53A C87U A89C C95U C132A A142C and A37C C87G A97U U102G C108U C118U U144C cannot be ordered by “polymerase ribozyme fitness (log ratio)” value: ≤ -4.2 for the first, ≤ -4.2 for the second.

A37C A47G G48A G58A G84U A119G and C36A G42C U55A A66C C69U C105G A122U G126A A142C cannot be ordered by “polymerase ribozyme fitness (log ratio)” value: ≤ -4.2 for the first, ≤ -4.2 for the second.

C35G G126C and C36A G59C A91C C114U U145C cannot be ordered by “polymerase ribozyme fitness (log ratio)” value: ≤ -4.2 for the first, ≤ -4.2 for the second.

C36G G62C G86C C95G and C36A C108G G124U G141U cannot be ordered by “polymerase ribozyme fitness (log ratio)” value: ≤ -4.2 for the first, ≤ -4.2 for the second.

First: C35G C54U G80C
Second: C35U C116U A120G
The “polymerase ribozyme fitness (log ratio)” value of the first is lower: ≤ -4.2 for the first, -0.528 for the second.

C35G U61A and C35U C57G U130G C132G cannot be ordered by “polymerase ribozyme fitness (log ratio)” value: ≤ -4.2 for the first, ≤ -4.2 for the second.

Going from C35G G50C U56A A64U G133C U148G to C35U A37C U55A C95U, the “polymerase ribozyme fitness (log ratio)” value rises from ≤ -4.2 to -1.32.

C35U G74U G83C A107C G126A U148C and C35U U56A G83U G92U C125U U151G cannot be ordered by “polymerase ribozyme fitness (log ratio)” value: ≤ -4.2 for the first, ≤ -4.2 for the second.

First: C35G A40C A60C G83A C99A U139C A142C
Second: C35U U56A G143C
The “polymerase ribozyme fitness (log ratio)” value of the first is lower: ≤ -4.2 for the first, -2.48 for the second.

Compared with C36U G59A A60C C75G C87U, C35U U56G U134A is higher in “polymerase ribozyme fitness (log ratio)” value: ≤ -4.2 for the first, -2.9 for the second.

C36G U55A G83C G86A C96A A97U A98U C114U C132G and A37C A47G A150C cannot be ordered by “polymerase ribozyme fitness (log ratio)” value: ≤ -4.2 for the first, ≤ -4.2 for the second.

C36A C43A C51A G88C G124A U130G G136U G141U and C36U A47U G58U U82A G88U G140C cannot be ordered by “polymerase ribozyme fitness (log ratio)” value: ≤ -4.2 for the first, ≤ -4.2 for the second.

Going from C35U U82C to C36U G58C A66C G88U A106C G112C G133U U139G G141C, the “polymerase ribozyme fitness (log ratio)” value falls from 0.243 to ≤ -4.2.

Compared with C36G G50C C149A, C36U U55G C118G is higher in “polymerase ribozyme fitness (log ratio)” value: ≤ -4.2 for the first, -1.72 for the second.

Compared with C35U A41C G58C G68U G86U C114A G140A, C35U U135G is higher in “polymerase ribozyme fitness (log ratio)” value: ≤ -4.2 for the first, -3.62 for the second.

Compared with C35U C87A, A37C C57G C76G A98G A138C G140U is higher in “polymerase ribozyme fitness (log ratio)” value: ≤ -4.2 for the first, -3.42 for the second.

C35U A49C G59A C95U U104A G143C and C35U G50A A66C G67A cannot be ordered by “polymerase ribozyme fitness (log ratio)” value: ≤ -4.2 for the first, ≤ -4.2 for the second.

In the case of C36U U53A C72G A91G G143U U146C, the “polymerase ribozyme fitness (log ratio)” value is reported as ≤ -4.2.
